# Assay results as given in PubChem BioAssay (NCATS).
# Some of the results follow. Shown are side measurements of this screen, not its main read-out; they come without a call. The list favours compounds with an active or inconclusive main result. The note in brackets gives the kind of curve behind each potency; many fits are weak.
# Assay: qHTS Assay for Lipid Storage Modulators (AID 1519)
# Settings: Drosophila S3 cells, BODIPY lipid droplet/cell ratio, laser cytometry; measured here: cell number channel AC50; cells loaded with oleic acid
# Method in brief: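 Cells seeded at 5,000 per well were treated with compounds over a concentration series and loaded with oleic acid (400 uM, as added). Lipid droplet fluorescence (488 nm excitation, 500-530 nm channel) was read by laser-scanning cytometry and normalized to 20 uM Triacsin C.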
# Tags tell the direction and shape of the fitted curve.
row,Structure (SMILES),AC50
1,Cc1cnc(CNc2cc(-c3cccnc3)ncn2)cn1,"1580 nM [rising, full curve, poor fit]"
2,CS(=O)(=O)N1CCC2(CC1)CN(c1ncccn1)C2,"1780 nM [rising, full curve, poor fit]"
3,Cc1noc(C)c1-c1ccc2ncnc(Nc3ccccc3)c2c1,"6310 nM [rising, partial curve, poor fit]"
4,O=c1c(-c2cccc(Cl)c2)nc2cncnc2n1Cc1ccc(F)cc1,"5620 nM [rising, partial curve, poor fit]"
5,COc1ccc(CNc2ncncc2-c2cccc(C#N)c2)c(OC)c1,"891 nM [rising, full curve, poor fit]"
6,O=S(=O)(c1ccccc1)N1CCC2(CCN(c3ncccn3)CC2)CC1,"6310 nM [rising, partial curve, poor fit]"
7,CCN(Cc1ccncc1)C(=O)[C@@H](CO)c1ccccc1,"35500 nM [rising, single point]"
8,COc1c2ccoc2nc2c(OC)c(OCC(O)C(C)(C)O)ccc12 (stereo not given),"2000 nM [rising, full curve]"
9,N#CCCn1c(=O)c(CCc2ccccc2)nc2cnc(Oc3ccccc3)nc21,"316 nM [rising, full curve, poor fit]"
10,COc1ccc(Cl)cc1N=Nc1ncc[nH]1,"1000 nM [rising, full curve]"
11,O=c1c(-c2cccc(Cl)c2)nc2cncnc2n1-c1ccccc1,"1780 nM [rising, full curve]"
12,CO/N=C(/C(=O)NC1C(=O)N2C(C(=O)O)=C(COC(N)=O)CSC12)c1ccco1 (stereo not given),"2240 nM [rising, full curve, poor fit]"
13,COc1ccc(Oc2ncc3nc(C)c(=O)n(Cc4cccs4)c3n2)cc1,"1410 nM [rising, partial curve]"
14,Cc1nc2cnc(N(C)C)nc2n(CCc2ccccc2)c1=O,"1780 nM [rising, full curve, poor fit]"
15,COc1ccc2[nH]cc(CCNc3ncncc3-c3ccccc3C(F)(F)F)c2c1,"2510 nM [rising, partial curve]"
16,COc1ccccc1CCn1c(=O)c(C)nc2cncnc21,"79.4 nM [rising, partial curve, poor fit]"
17,COc1ccc(CNc2nc(-c3c(C)noc3C)nc3ccccc23)c(OC)c1,"3550 nM [rising, partial curve, poor fit]"
18,COc1ccc2[nH]cc(CCNc3nc(-c4cccc(C#N)c4)nc4ccccc34)c2c1,"79.4 nM [rising, full curve]"
19,Cc1ccccc1-c1cc(N(C)Cc2ccco2)ncn1,"11200 nM [rising, partial curve, poor fit]"
20,CCCCN1CCC[C@@H]1CNC(=O)c1cc(C#N)c2ccccc2c1OC,"7940 nM [rising, partial curve]"

row,Structure (SMILES),AC50
1,COC1(C2=NCCN2)COc2ccccc2O1 (stereo not given),"3160 nM [falling, partial curve, poor fit]"
2,CN(CC[C@@H](Oc1ccc(-c2ccccc2)cc1)c1ccc(F)cc1)CC(=O)O,"35500 nM [rising, single point]"
3,Cc1noc(C)c1-c1nc(NCCN2CCOCC2)c2ccccc2n1,"1000 nM [rising, full curve]"
4,Cc1cnc(CNc2ncnc3ccc(-c4ccc(C(=O)N(C)C)cc4)cc23)cn1,"5620 nM [rising, partial curve]"
5,Cc1cnc(CNc2ncncc2-c2ccc3c(c2)OCO3)cn1,"200 nM [rising, full curve, poor fit]"
6,COc1cc(/C=C/C(=O)N2CCC=CC2=O)cc(OC)c1OC,"22400 nM [falling, partial curve, poor fit]"
7,CC1(C)CC(=O)C([C@H]2C3=C(CC(C)(C)CC3=O)Oc3ccccc32)C(=O)C1,"17800 nM [rising, partial curve, poor fit]"
8,CCCCCCc1c(C[C@H](N)C(=O)O)o[nH]c1=O,"14100 nM [rising, single point]"
9,COC(=O)[C@H]1[C@H]2CC3c4[nH]c5ccccc5c4CCN3C[C@@H]2CC[C@@H]1O (stereo not given in full),"31600 nM [rising, single point]"
10,CN(C)c1ccc(-c2nc(NCCc3cnc[nH]3)c3ccccc3n2)cc1,"794 nM [rising, full curve, poor fit]"
11,CN(C)c1ncc2nc(-c3cccs3)c(=O)n(CCc3ccccc3)c2n1,"631 nM [rising, full curve, poor fit]"
12,CN(C)c1ncc2nc(-c3cccs3)c(=O)n(-c3ccccc3)c2n1,"15800 nM [rising, partial curve]"
13,C[C@H]1C=C2C=C[C@H](C)[C@H](CC[C@@H]3C[C@@H](O)CC(=O)O3)[C@H]2[C@@H](OC(=O)[C@@H](C)CCO)C1,"39800 nM [rising, partial curve, poor fit]"
14,CCCN(CCC)C(=O)C(CCC(=O)O)NC(=O)c1ccccc1 (stereo not given),"7080 nM [falling, full curve, poor fit]"
15,O=c1c(CCc2ccccc2)nc2cnc(N3CCOCC3)nc2n1Cc1ccc(F)cc1,"141 nM [rising, full curve, poor fit]"
16,COc1cccc(-c2nccc(NCc3cnc(C)cn3)n2)c1,"1260 nM [rising, full curve]"
17,COCCn1c(=O)c(CCc2ccccc2)nc2cnc(N3CCOCC3)nc21,"3550 nM [rising, full curve]"
18,c1ccc(CNc2ncnc3ccc(-c4ccoc4)cc23)cc1,"5620 nM [rising, full curve]"
19,CC#CCOC(=O)c1c(C)nc2sc3c(c2c1N)CC[C@@H](O)C3,"1000 nM [rising, full curve]"
20,CC(N)(C(=O)O)c1ccc(C(=O)O)cc1 (stereo not given),"112 nM [falling, full curve, poor fit]"
